The BET-seq Pho4 binding data (Le et al. 2018)
Some of the results follow. The energies were worked out here from pooled read counts, against the library average; single values are noisy.

Each sequence was assayed against T1, Pho4 (S. cerevisiae) (UniProt P07270) (assay: relative binding free energy (BET-seq); higher = weaker binding). Settings: reference: library average.
T1 sequence: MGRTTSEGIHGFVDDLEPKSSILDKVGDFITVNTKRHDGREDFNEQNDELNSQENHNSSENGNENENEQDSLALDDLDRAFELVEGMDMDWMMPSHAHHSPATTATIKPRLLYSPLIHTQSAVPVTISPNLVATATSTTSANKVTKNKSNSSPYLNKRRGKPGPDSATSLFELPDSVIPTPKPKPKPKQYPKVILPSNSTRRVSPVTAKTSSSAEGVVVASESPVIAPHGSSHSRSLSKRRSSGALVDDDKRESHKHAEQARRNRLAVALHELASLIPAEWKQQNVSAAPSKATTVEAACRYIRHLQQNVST

Sequence	relative binding free energy
AGGGTCACGTGCGATT	0.13 kcal/mol
TGCGGCACGTGGGGTC	-0.19 kcal/mol
GCTAGCACGTGTTTTT	0.13 kcal/mol
TGCGCCACGTGGTTTG	-0.27 kcal/mol
GGGTTCACGTGATTGT	0.49 kcal/mol
AGCAGCACGTGTAGTG	0.04 kcal/mol
GGTGTCACGTGTAGGC	0.07 kcal/mol
TTTATCACGTGAAGCG	0.3 kcal/mol
TAGGTCACGTGGTTGT	0.09 kcal/mol
GATAGCACGTGGATTT	0.12 kcal/mol
GGCGTCACGTGTGGCG	0.23 kcal/mol
GTTCACACGTGTGTTT	0.21 kcal/mol
GGGCGCACGTGAGGTA	0.02 kcal/mol
AGCTTCACGTGTGGGA	0.27 kcal/mol
TGGCTCACGTGGGGGA	0.04 kcal/mol
TTTAACACGTGTAGGT	-0.04 kcal/mol
TTTATCACGTGGTACA	0 kcal/mol
GTTTTCACGTGTGGCT	0.4 kcal/mol
TTTGCCACGTGGGCTT	-0.15 kcal/mol
GATATCACGTGGGTGC	0.06 kcal/mol
GTAAACACGTGGTGAT	-0.13 kcal/mol
TAGTCCACGTGGTGAG	0 kcal/mol
TTGCTCACGTGTCGTT	0.12 kcal/mol
AGGTACACGTGGGAGG	-0.05 kcal/mol
GGTACCACGTGAAGTG	0.38 kcal/mol
CAGGACACGTGATTGG	0.2 kcal/mol

Sequence	relative binding free energy
GTGTCCACGTGGGCCG	0.11 kcal/mol
GTAGGCACGTGTTAGT	-0.01 kcal/mol
TGGAGCACGTGGATTA	-0.22 kcal/mol
TGAAGCACGTGGGTTC	-0.04 kcal/mol
TAGTGCACGTGTAGCG	0 kcal/mol
TTTAACACGTGTCGTT	0.04 kcal/mol
TTAGGCACGTGCGCTG	-0.16 kcal/mol
TTGTGCACGTGGCTAG	-0.03 kcal/mol
AATAACACGTGTGAGT	0 kcal/mol
GTGAGCACGTGTGATA	-0.01 kcal/mol
GAGAGCACGTGGGAGT	-0.14 kcal/mol
TTTACCACGTGGTATT	-0.09 kcal/mol
TTAATCACGTGCGTGC	0.17 kcal/mol
TGGTACACGTGGAAGT	0.18 kcal/mol
AGTGGCACGTGTGTAT	-0.05 kcal/mol
GGGGACACGTGTGGTC	0.11 kcal/mol
TTATTCACGTGGTAGT	0.27 kcal/mol
ATTAGCACGTGTTTGC	-0.08 kcal/mol
TGTGGCACGTGCTTGA	-0.16 kcal/mol
GAATACACGTGATTAT	0.46 kcal/mol
ACGAGCACGTGGTTGT	-0.16 kcal/mol
GGCTTCACGTGTGAGA	0.44 kcal/mol
TGAATCACGTGTGTGG	0.16 kcal/mol
GCGAGCACGTGGGTGT	-0.24 kcal/mol
GTGTTCACGTGTAAGG	0.34 kcal/mol
TCAGGCACGTGAGGGA	0.19 kcal/mol

Sequence	relative binding free energy
TTCTGCACGTGCTGGT	-0.08 kcal/mol
GCGGGCACGTGCGTTT	-0.12 kcal/mol
AATTTCACGTGGTTCT	0.21 kcal/mol
GCAATCACGTGGTAGT	0.19 kcal/mol
ACGGTCACGTGAATGT	0.32 kcal/mol
TAGTACACGTGGGTTT	-0.1 kcal/mol
GATTTCACGTGGTGGG	0.37 kcal/mol
AATAGCACGTGGGGGG	-0.17 kcal/mol
CGGATCACGTGATGTG	0.15 kcal/mol
GAATTCACGTGGTAGT	0.29 kcal/mol
TAGAACACGTGTGATT	0.16 kcal/mol
GGATGCACGTGTTGCT	0.02 kcal/mol
TTTGACACGTGCTGTG	-0.14 kcal/mol
AGATCCACGTGTGGGG	0.22 kcal/mol
GGGAGCACGTGTGGGA	-0.05 kcal/mol
GTTGGCACGTGAAACG	0.07 kcal/mol
GGCAACACGTGTAGTT	0.14 kcal/mol
TGTAGCACGTGTCGGG	-0.07 kcal/mol
AGTGGCACGTGGCGCT	-0.21 kcal/mol
GGTTTCACGTGATTCA	0.49 kcal/mol
ACGGGCACGTGGTAGA	-0.21 kcal/mol
GATGGCACGTGTAGTT	0.17 kcal/mol
ATATGCACGTGTATTT	-0.04 kcal/mol
AAAGGCACGTGTCGAT	0.05 kcal/mol
TAGTGCACGTGTTTGG	-0.09 kcal/mol
GCGTTCACGTGCGGTT	0.27 kcal/mol

Sequence	relative binding free energy
TCGGTCACGTGGAGGT	0.14 kcal/mol
CAGTTCACGTGGATTG	0.28 kcal/mol
GTTGGCACGTGATTTC	-0.02 kcal/mol
CGTTACACGTGTTATA	0.09 kcal/mol
AAGGGCACGTGGATCT	-0.01 kcal/mol
GTATACACGTGGGAGG	-0.02 kcal/mol
ATGTACACGTGAAGAT	0.24 kcal/mol
CTATACACGTGGGGAT	0.06 kcal/mol
GAGTGCACGTGGCGAT	-0.13 kcal/mol
TATATCACGTGCATTT	0.18 kcal/mol
CTTAGCACGTGGGGCG	-0.24 kcal/mol
GGCTGCACGTGTGGTA	-0.04 kcal/mol
GGCTGCACGTGGTTGA	-0.09 kcal/mol
GGCTTCACGTGAGGTC	0.44 kcal/mol
TTTGGCACGTGTCGTA	-0.14 kcal/mol
GTGGTCACGTGTCAGA	0.2 kcal/mol
CGTATCACGTGTGGTT	0.21 kcal/mol
CTATTCACGTGTGGGC	0.24 kcal/mol
GGTCTCACGTGAGGGT	0.38 kcal/mol
GTCGGCACGTGTAAGT	0.08 kcal/mol
TGTGTCACGTGGCCTT	0 kcal/mol
ATCGACACGTGGGTTA	-0.01 kcal/mol
ATGGTCACGTGGCTTC	0.09 kcal/mol
TCGTACACGTGTCGGG	0.11 kcal/mol
GTACGCACGTGGTTTG	-0.06 kcal/mol
TTAGGCACGTGACGAT	0.04 kcal/mol

Sequence	relative binding free energy
GGACACACGTGGGGGT	-0.07 kcal/mol
AGTATCACGTGCGTTT	0.09 kcal/mol
GAGTGCACGTGGGAAT	0.02 kcal/mol
GGACTCACGTGGTGTT	0.16 kcal/mol
TGGATCACGTGTATAT	0.27 kcal/mol
AGAGGCACGTGATTAG	-0.08 kcal/mol
ATGTGCACGTGTGAGG	0.07 kcal/mol
GGGTGCACGTGATGGG	0.15 kcal/mol
GGGCGCACGTGGTTAT	-0.11 kcal/mol
ATTGGCACGTGAGTTG	0.1 kcal/mol
GCGTGCACGTGTGAGG	0.11 kcal/mol
TTTTGCACGTGTCTAG	0.08 kcal/mol
GGCTTCACGTGTGCGT	0.25 kcal/mol
CTTTGCACGTGTGGGT	0.05 kcal/mol
GGAAACACGTGATGTG	0.03 kcal/mol
GTATGCACGTGCGTTT	-0.1 kcal/mol
TTATTCACGTGTTGTA	0.16 kcal/mol
TTGGGCACGTGTGGGC	0.01 kcal/mol
GCGTGCACGTGTGAGT	-0.03 kcal/mol
AAGTTCACGTGGTTCG	0.2 kcal/mol
GTATTCACGTGGGTAC	0.18 kcal/mol
AGCGGCACGTGACGGT	-0.03 kcal/mol
AGTGGCACGTGGGTGG	-0.23 kcal/mol
TGGGCCACGTGGCCGG	-0.19 kcal/mol
GGGACCACGTGGTATG	-0.1 kcal/mol
CATTTCACGTGGGTTG	0.21 kcal/mol

Sequence	relative binding free energy
CTCGTCACGTGGGGAA	-0.05 kcal/mol
GATATCACGTGGGGAA	0.03 kcal/mol
ATGTGCACGTGAAAGA	0.23 kcal/mol
GTGGGCACGTGAGCGT	0.13 kcal/mol
GGTGTCACGTGGATTG	0.09 kcal/mol
TGAATCACGTGGGGCT	0.1 kcal/mol
AAAAGCACGTGGGGAA	-0.01 kcal/mol
TGGGCCACGTGGGTTT	-0.03 kcal/mol
GGAGGCACGTGAGCGC	0.15 kcal/mol
TTTTGCACGTGTTTCA	0 kcal/mol
CGCGGCACGTGCGGTG	-0.05 kcal/mol
GGTGGCACGTGGTCCG	-0.16 kcal/mol
TTTGTCACGTGATTTA	0.25 kcal/mol
GTGGACACGTGCTGGT	-0.03 kcal/mol
TACTTCACGTGTATTT	0.33 kcal/mol
CTGTTCACGTGAGGAG	0.28 kcal/mol
GGCATCACGTGGTGAA	0.25 kcal/mol
AGACGCACGTGGTAGG	-0.15 kcal/mol
ATTGGCACGTGGCTCT	-0.14 kcal/mol
TGCTACACGTGGGGGG	0.02 kcal/mol
TATGCCACGTGTTTTA	-0.14 kcal/mol
TTCATCACGTGAGTGG	0.31 kcal/mol
ATCTTCACGTGGGGTC	0.09 kcal/mol
GTATACACGTGAGGGT	0.26 kcal/mol
ATGGGCACGTGGTGAC	-0.21 kcal/mol
AAGGGCACGTGTTTTG	-0.09 kcal/mol

Sequence	relative binding free energy
TCAATCACGTGTGGTA	0.23 kcal/mol
CATTTCACGTGGTCAT	0.32 kcal/mol
CGGTTCACGTGGTGAC	0.24 kcal/mol
TGTACCACGTGTAGGG	-0.04 kcal/mol
GGGTCCACGTGTGGAT	0.19 kcal/mol
AATATCACGTGGGATG	0.02 kcal/mol
GATATCACGTGTGAAT	0.25 kcal/mol
AAGGGCACGTGGAAAG	-0.07 kcal/mol
AGTCCCACGTGGGAGG	-0.1 kcal/mol
TCAGTCACGTGGTTTG	0.09 kcal/mol
ATCATCACGTGAGTTG	0.22 kcal/mol
GGTGGCACGTGATGAG	-0.02 kcal/mol
TGATTCACGTGTTATA	0.2 kcal/mol
CCATGCACGTGCGGGG	0.08 kcal/mol
GGGCACACGTGTGGGG	0.11 kcal/mol
ATTAACACGTGATTTG	0.15 kcal/mol
AAAAGCACGTGTATTT	-0.05 kcal/mol
GGTCTCACGTGGACGG	0.33 kcal/mol
TGGTTCACGTGTACTG	0.19 kcal/mol
GAGGGCACGTGGAGGT	-0.1 kcal/mol
GTTGGCACGTGCAGCT	-0.06 kcal/mol
TGTCTCACGTGTGGTC	0.38 kcal/mol
CTGGGCACGTGACGTG	0.02 kcal/mol
GAGGTCACGTGTATGT	0.2 kcal/mol
CGGTACACGTGTGGTG	0.03 kcal/mol
TACTTCACGTGTTTTG	0.33 kcal/mol

Sequence	relative binding free energy
CTTCACACGTGTTGTT	0.1 kcal/mol
CAGTTCACGTGTTGCT	0.47 kcal/mol
GTGTACACGTGGGGGT	-0.14 kcal/mol
TGGATCACGTGGAAGG	0.24 kcal/mol
TAGATCACGTGTGTGC	0.13 kcal/mol
ATGACCACGTGGTAGG	-0.1 kcal/mol
TGGTACACGTGGGGTT	-0.07 kcal/mol
GTGCCCACGTGTGTTG	-0.08 kcal/mol
GTGGCCACGTGTGTAT	-0.01 kcal/mol
GTTTTCACGTGCTAGA	0.43 kcal/mol
TGGGACACGTGTTCTT	0.04 kcal/mol
TATGACACGTGTGGGA	0.15 kcal/mol
TAATTCACGTGGTGGA	0.12 kcal/mol
AGCGACACGTGTTGGT	0.08 kcal/mol
GTCATCACGTGGTCTG	0.11 kcal/mol
TAAGGCACGTGGGTCA	-0.18 kcal/mol
GGTGGCACGTGTTGAT	-0.09 kcal/mol
TATGCCACGTGGAGTG	-0.08 kcal/mol
TTTTCCACGTGGGGAG	0.1 kcal/mol
AAATACACGTGTTTGG	-0.04 kcal/mol
ATCGGCACGTGTGGCA	0.01 kcal/mol
AAATTCACGTGCTGGT	0.24 kcal/mol
AATTGCACGTGTGTGT	0.02 kcal/mol
TGAGGCACGTGGGTAG	-0.22 kcal/mol
AGTGACACGTGTTGGG	0.05 kcal/mol
TTTCGCACGTGAGAGG	0.24 kcal/mol

Sequence	relative binding free energy
TGAGCCACGTGCGTTT	-0.03 kcal/mol
CTGGACACGTGTGTTT	0.07 kcal/mol
TCCGTCACGTGGGTAT	0.06 kcal/mol
AGGGTCACGTGAAATG	0.22 kcal/mol
GAGTACACGTGGGGTA	-0.05 kcal/mol
ACTTTCACGTGTGGTA	0.26 kcal/mol
TGGATCACGTGTAGGA	0.17 kcal/mol
GTTTCCACGTGAGGGC	0.29 kcal/mol
ATAAGCACGTGGTTTG	-0.13 kcal/mol
ACTCGCACGTGGTTGG	0.05 kcal/mol
TCAGTCACGTGGGTCT	0.04 kcal/mol
TTTAACACGTGCATTT	0.07 kcal/mol
ACTGGCACGTGTGATT	-0.01 kcal/mol
GATTGCACGTGGGAGA	0.19 kcal/mol
TGGGGCACGTGCAGGT	-0.17 kcal/mol
ATGTGCACGTGGCCTG	-0.19 kcal/mol
GGAGTCACGTGAGCGG	0.26 kcal/mol
GAGGTCACGTGGGGCA	0 kcal/mol
TTATTCACGTGGGCTC	0.33 kcal/mol
AATGGCACGTGCTGCG	-0.16 kcal/mol
TGCTTCACGTGAGGAT	0.24 kcal/mol
TGTTGCACGTGTGGCT	0.11 kcal/mol
